This note sets out measurements from the supplement of paper PMC11417369.

The other results are listed elsewhere or left out.

The test system of the experiment is PfSIP2 AP2 domain 1 (GST-tagged). Nature of the experiment: gcPBM binding intensity (ln(normalized median fluorescence intensity)); higher = stronger DNA binding. Put shortly: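 An Agilent 4 × 180k array carrying primer-extended double-stranded 36-bp intergenic genomic probes and negative controls received GST-tagged P. falciparum DNA-binding domains expressed in E. coli, about 25 μg on average, for 1 h. The binding buffer contained 1× PBS, 1% milk, 0.2 mg/ml BSA, 0.5% salmon testes DNA and 0.03% Triton X-100. Binding intensity is the top Masliner-normalised natural-log median intensity across replicate spots of either probe orientation, read after Alexa488 anti-GST antibody staining and a 488 nm scan.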
In the case of “GTATCAAAAGAATACACACACACATACAGATATATA [CACACA_site5975]”, the “gcPBM binding intensity (ln)” value turned out to be 7.26.

As for “TGATATTATATATATACACACATGTATGTATTTATA [CACACA_site4874]”, the “gcPBM binding intensity (ln)” value turned out to be 6.95.

Regarding “ATAAACAAACATAAATCTGATTTTAATTTTTTTAAG [CACACA_negctrl_site313]”, the “gcPBM binding intensity (ln)” value stood at 6.77.

With TTATATTTTCTCCGCGTGCACATATGTATACTATAC, the “gcPBM binding intensity (ln)” value amounted to 9.76.

On to “GAAATCTAAATAGAAACACACATATATATATATATA [CACACA_site3863]”, for which the “gcPBM binding intensity (ln)” value is 9.23.

On to “TTTTTGTTTTTTTGTTTATCGTTCGTGACTACATGA [TGCATGCA_negctrl_site124]”, for which the “gcPBM binding intensity (ln)” value is 6.99.

Take “TAGGGTAGTTATAATTGTACTTTTCTCCAAAAAAAA [XGTACX_site7321]”: the “gcPBM binding intensity (ln)” value amounted to 6.98.

Consider “AAAAATAAAAAATATAAAAATATAAAAATATAAAAA [XGTACX_negctrl_site51]”, for which the “gcPBM binding intensity (ln)” value was found to be 6.75.

For “TCTTTTTCATCTTTCAACAAAAAATAATATATGTGT [CACACA_negctrl_site866]”, the “gcPBM binding intensity (ln)” value was 7.17.

As to “TAAATTTGTGTTATTAAAAAAATGGTTTAAAAATGT [XGTACX_negctrl_site352]”, the “gcPBM binding intensity (ln)” value came to 7.21.

On to “ATATATTTATATTGTACACACATTTATGCATATATA [CACACA_site7502]”, for which the “gcPBM binding intensity (ln)” value is 7.2.

Take “AAATATACAATATTCACACAAAAAAATACATTACAA [CACACA_site5004]”: the “gcPBM binding intensity (ln)” value amounted to 6.91.

“TTTCTTACAAAAGCTAGAGTTTTTTTTTTTTTTTTT [XGTACX_negctrl_site341]”: the “gcPBM binding intensity (ln)” value is 7.64.

Consider “TGTTTTTATAAAATAAATAAATATATATATATATAT [CACACA_negctrl_site502]”, for which the “gcPBM binding intensity (ln)” value amounted to 9.42.

On to “AGAATAAATATGCACACATGCATATATTTTTACACT [TGCATGCA_site893]”, for which the “gcPBM binding intensity (ln)” value was 9.22.

With “TTAGTCCATATTTTTGCACACCATTTTTTTTTTTTT [CACACA_site3927]”, the “gcPBM binding intensity (ln)” value turned out to be 7.5.

As to “ATCCTTAATATGAACACACAAATATATTGCACATAT [CACACA_site6230]”, the “gcPBM binding intensity (ln)” value came to 7.52.

On to “GGTTAAAAAAAGCATACACACTATCCTCTTTGCTCT [CACACA_site7246]”, for which the “gcPBM binding intensity (ln)” value came out at 7.04.

Consider “CTTTTTTATTTTTCAACACACATAATAAATTTCTAT [CACACA_site1037]”, for which the “gcPBM binding intensity (ln)” value is 7.25.

For the sequence “GAACCTTTAAAATACACACCCAAATCCTTTGAAATA [CACACA_site3630]”, the “gcPBM binding intensity (ln)” value turned out to be 7.01.

For the sequence “ATATTTTACAAATGCACACATAATTTTTTTTTTTTT [CACACA_site2763]”, the “gcPBM binding intensity (ln)” value is 7.15.

Consider “TACATAAATACATACATACACACATATATATATATA [CACACA_site2105]”, for which the “gcPBM binding intensity (ln)” value was 9.36.

On to “TTTTTTTTTATATATACACACAATAAATAAATATAA [CACACA_site2954]”, for which the “gcPBM binding intensity (ln)” value was determined as 7.06.

Take “AGCAGACACCAACACACACACATATATATATATATA [CACACA_site337]”: the “gcPBM binding intensity (ln)” value was 9.47.
